Results from the supplement of paper PMC10369915.
The other results are listed elsewhere or left out. No stated cut-off is given here; in the data, active = 3.2 or more and inactive = the rest. Most of these values are background signal.

B1: FOXL2_Y83_I84S_YF (peptide)
chain: SGIFQYSIAKF
B2: FUS_Y526 (peptide)
chain: RRERPYGGGGG
B3: G6PD_Y437 (peptide)
chain: KLPDAYERLIL
B4: FUS_Y232_G230C (peptide)
chain: GGGCGYNRSSG
B5: FRK_Y132_S133L (peptide)
chain: EKQLLYLENKT
B6: GALT_Y339 (peptide)
chain: KFMVGYEMLAQ
B7: GALE_Y104_D103G (peptide)
chain: QKPLGYYRVNL
B8: FOXL2_Y258_Y258N_YF (peptide)
chain: ASFGPNTRVQS
B9: FOXL2_Y258 (peptide)
chain: ASYGPYTRVQS
B10: GAGE12J_Y9_R13S (peptide)
chain: RGRSTYYWPSP
B11: FOXL2_Y186 (peptide)
chain: AGADGYGYLAP
B12: G6PD_Y202_R198C_YF (peptide)
chain: FCIDHYLGKEM
B13: GAGE12J_Y9 (peptide)
chain: RGRSTYYWPRP
B14: GAGE12J_Y10_R13S_YF (peptide)
chain: GRSTFYWPSPR
B15: FOXL2_Y81_I84S_YF (peptide)
chain: TLSGIYQFSIA
B16: G6PD_Y202 (peptide)
chain: YRIDHYLGKEM
B17: G6PD_Y322_L323P (peptide)
chain: EATKGYPDDPT
B18: GAA_Y407_W402R (peptide)
chain: RNDLDYMDSRR
B19: G6PD_Y107_S106C (peptide)
chain: FARNCYVAGQY
B20: FOXL2_Y81_I84S (peptide)
chain: TLSGIYQYSIA
B21: GAB2_Y324_P320L (peptide)
chain: TLLSAYQIPRT
B22: GAMT_Y222_A224T (peptide)
chain: PADCRYYTFPQ
B23: FOXE3_Y108 (peptide)
chain: ERFAFYRDSPR
B24: FOXL2_Y258_Y258N (peptide)
chain: ASYGPNTRVQS
B25: FOXL2_Y81_YF (peptide)
chain: TLSGIYQFIIA
B26: FXN_Y118_D122Y_YF (peptide)
chain: LADKPYTFEFF
B27: GALT_Y339_M336L (peptide)
chain: KFLVGYEMLAQ
B28: FOXI1_Y126_S129L_YF (peptide)
chain: LVRPPYSFLAL
B29: FRK_Y104_YF (peptide)
chain: FIPSNYVAEDR
B30: FUS_Y232 (peptide)
chain: GGGGGYNRSSG
B31: GALE_Y104_D103G_YF (peptide)
chain: QKPLGYFRVNL
B32: FUS_Y526_R522G (peptide)
chain: RGERPYGGGGG
B33: FYN_Y440 (peptide)
chain: PEAALYGRFTI
B34: FOXL2_Y81_I80T (peptide)
chain: TLSGTYQYIIA
B35: FOXP3_Y342_R347H (peptide)
chain: RPPFTYATLIH
B36: FOXC1_Y159_M161K (peptide)
chain: LDPDSYNKFEN
B37: FNDC3B_Y180_T179S_YF (peptide)
chain: FGMSSYITRED

Each binder was assayed against SHP2 C-SH2 domain E139D (assay: enrichment score (SH2-bound / input frequency) (ratio); bacterial display of known human phosphotyrosine sites (pTyr-Var adds point mutants) read by sequencing; higher = stronger binding; tyrosines were phosphorylated by kinases first). Details: peptide library: pTyr-Var.
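Further: displayed peptides selected on beads carrying the immobilized SH2 domain, with library peptides lacking any tyrosine serving as negative controls.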

Binder | enrichment score
B1 | inactive: 1.95
B2 | inactive: 0.151
B3 | inactive: 1.06
B4 | inactive: 0.634
B5 | inactive: 0.873
B6 | inactive: 1.36
B7 | inactive: 1.34
B8 | inactive: 0.748
B9 | inactive: 0.871
B10 | inactive: 0.234
B11 | inactive: 0.62
B12 | inactive: 1.16
B13 | inactive: 0.167
B14 | inactive: 1.18
B15 | inactive: 1.41
B16 | inactive: 1.43
B17 | inactive: 0.414
B18 | inactive: 0.558
B19 | inactive: 0.783

Binder | enrichment score
B20 | inactive: 1.33
B21 | inactive: 0.992
B22 | inactive: 0.732
B23 | inactive: 1.24
B24 | inactive: 0.604
B25 | active: 3.31
B26 | inactive: 0.646
B27 | inactive: 1.46
B28 | inactive: 0.611
B29 | inactive: 0.948
B30 | inactive: 0.471
B31 | inactive: 1.43
B32 | inactive: 0.663
B33 | inactive: 0.623
B34 | inactive: 1.17
B35 | active: 3.73
B36 | inactive: 0.265
B37 | inactive: 1.02

Each binder was assayed against SHP2 C-SH2 domain wild-type in the same assay as above. Details: peptide library: pTyr-Var.

Binder | enrichment score
B1 | inactive: 1.79
B2 | inactive: 0.171
B3 | inactive: 1.05
B4 | inactive: 0.774
B5 | inactive: 0.914
B6 | inactive: 1.11
B7 | inactive: 1.22
B8 | inactive: 0.723
B9 | inactive: 2.3
B10 | inactive: 0.294
B11 | inactive: 0.713
B12 | inactive: 1.22
B13 | inactive: 0.139
B14 | inactive: 1.18
B15 | inactive: 1.65
B16 | inactive: 1
B17 | inactive: 0.471
B18 | inactive: 0.642
B19 | inactive: 0.887

Binder | enrichment score
B20 | inactive: 1.73
B21 | inactive: 1.03
B22 | inactive: 1.41
B23 | inactive: 0.757
B24 | inactive: 0.508
B25 | inactive: 2.82
B26 | inactive: 0.517
B27 | inactive: 1.22
B28 | inactive: 0.659
B29 | inactive: 0.71
B30 | inactive: 0.52
B31 | inactive: 1.51
B32 | inactive: 0.482
B33 | inactive: 0.697
B34 | inactive: 2.02
B35 | active: 5.24
B36 | inactive: 0.5
B37 | inactive: 0.864

These binders were tested against SHP2 N-SH2 domain L43F in the same assay as above. Details: peptide library: pTyr-Var.

Binder | enrichment score
B1 | active: 3.74
B2 | inactive: 0.252
B3 | inactive: 0.918
B4 | inactive: 0.617
B5 | inactive: 0.912
B6 | inactive: 1.14
B7 | inactive: 1.07
B8 | inactive: 0.559
B9 | inactive: 0.79
B10 | inactive: 0.176
B11 | inactive: 0.642
B12 | inactive: 1.22
B13 | inactive: 0.224
B14 | inactive: 1.43
B15 | inactive: 1.53
B16 | inactive: 1.1
B17 | inactive: 0.422
B18 | inactive: 0.617
B19 | inactive: 0.713

Binder | enrichment score
B20 | active: 3.5
B21 | inactive: 1.14
B22 | inactive: 0.94
B23 | inactive: 0.786
B24 | inactive: 0.453
B25 | inactive: 2.9
B26 | inactive: 0.604
B27 | inactive: 1.27
B28 | inactive: 0.704
B29 | inactive: 0.821
B30 | inactive: 0.466
B31 | inactive: 1.55
B32 | inactive: 0.654
B33 | inactive: 1.35
B34 | inactive: 1.75
B35 | active: 4.89
B36 | inactive: 0.713
B37 | inactive: 0.813

The binders below were run against SHP2 N-SH2 domain T42A in the same assay as above. Details: peptide library: pTyr-Var.

Binder | enrichment score
B1 | inactive: 2.52
B2 | inactive: 0.421
B3 | inactive: 0.93
B4 | inactive: 0.601
B5 | inactive: 0.822
B6 | inactive: 1.43
B7 | inactive: 0.869
B8 | inactive: 0.384
B9 | inactive: 1.52
B10 | inactive: 0.194
B11 | inactive: 0.585
B12 | inactive: 1.23
B13 | inactive: 0.232
B14 | inactive: 1.1
B15 | inactive: 1.93
B16 | inactive: 0.854
B17 | inactive: 0.439
B18 | inactive: 0.838
B19 | inactive: 0.92

Binder | enrichment score
B20 | inactive: 1.5
B21 | inactive: 0.968
B22 | inactive: 0.668
B23 | inactive: 0.83
B24 | inactive: 0.58
B25 | inactive: 2.03
B26 | inactive: 0.71
B27 | inactive: 1.35
B28 | inactive: 0.732
B29 | inactive: 0.58
B30 | inactive: 0.418
B31 | inactive: 1.7
B32 | inactive: 0.784
B33 | inactive: 0.547
B34 | active: 5.52
B35 | active: 12.4
B36 | inactive: 0.333
B37 | inactive: 0.796

What follows are binders tested against SHP2 N-SH2 domain T52S in the same assay as above. Details: peptide library: pTyr-Var.

Binder | enrichment score
B1 | active: 4.87
B2 | inactive: 0.153
B3 | inactive: 0.966
B4 | inactive: 0.658
B5 | inactive: 0.779
B6 | inactive: 1.25
B7 | inactive: 1.02
B8 | inactive: 0.521
B9 | inactive: 0.803
B10 | inactive: 0.135
B11 | inactive: 0.702
B12 | inactive: 1.07
B13 | inactive: 0.208
B14 | inactive: 1.25
B15 | inactive: 1.66
B16 | inactive: 1.04
B17 | inactive: 0.599
B18 | inactive: 0.831
B19 | inactive: 0.634

Binder | enrichment score
B20 | active: 3.26
B21 | inactive: 1.08
B22 | inactive: 1.12
B23 | inactive: 0.799
B24 | inactive: 0.572
B25 | inactive: 2.4
B26 | inactive: 0.91
B27 | inactive: 1.26
B28 | inactive: 0.695
B29 | inactive: 0.69
B30 | inactive: 0.432
B31 | inactive: 1.56
B32 | inactive: 0.77
B33 | inactive: 0.804
B34 | inactive: 1.93
B35 | active: 6.25
B36 | inactive: 0.916
B37 | inactive: 0.748

What follows are binders tested against SHP2 N-SH2 domain wild-type in the same assay as above. Details: peptide library: pTyr-Var.

Binder | enrichment score
B1 | inactive: 1.84
B2 | inactive: 0.265
B3 | inactive: 0.863
B4 | inactive: 0.771
B5 | inactive: 1.3
B6 | inactive: 1.1
B7 | inactive: 1.75
B8 | inactive: 0.644
B9 | inactive: 0.678
B10 | inactive: 0.34
B11 | inactive: 0.669
B12 | inactive: 1.44
B13 | inactive: 0.389
B14 | inactive: 1.13
B15 | inactive: 1.61
B16 | inactive: 0.862
B17 | inactive: 0.545
B18 | inactive: 0.481
B19 | inactive: 1.13

Binder | enrichment score
B20 | inactive: 1.36
B21 | inactive: 1.19
B22 | inactive: 1.16
B23 | inactive: 0.943
B24 | inactive: 0.519
B25 | inactive: 2.67
B26 | inactive: 0.667
B27 | inactive: 1.18
B28 | inactive: 0.728
B29 | inactive: 0.805
B30 | inactive: 0.466
B31 | inactive: 1.39
B32 | inactive: 0.718
B33 | inactive: 1.16
B34 | inactive: 1.05
B35 | inactive: 2.45
B36 | inactive: 0.567
B37 | inactive: 0.845
